Laboratory results reported in the supplement of paper PMC3656093.
± gives the standard deviation of the averaged measurements. Over roughly 1,900 compounds, “CD40L-induced NF-kB luciferase activity, plate-corrected, relative to DMSO (0) and IKK inhibitor VII (-100) controls” has its median near 0.032; the lowest 2% begin near -26. The list shows a part of the results.

Tested on: BL2-NFkB-Luc
Assay: CD40L-induced NF-kB luciferase activity, plate-corrected, relative to DMSO (0) and IKK inhibitor VII (-100) controls (% normalized activity); higher = more NF-kB reporter activity (less inhibition)
Settings: 9.4 µM; stimulus: tCD40L 64 ng/ml; 4.5 h
Procedure: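 BL2 B cells with a stable NF-kB response-element luciferase reporter (BL2-NFkB-Luc), 384-well. Cells were pre-incubated with compound at 9.4 uM for 1 h at 37 C, then stimulated with 64 ng/ml trimerized CD40L for 4.5 h; luciferase was read with Steady-Glo. Signal was normalised per plate in Genedata (median DMSO neutral control = 0, median IKK inhibitor VII at 50 uM = -100) with Assay Median plate-pattern correction; duplicate plates.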

SMILES	CD40L-induced NF-kB luciferase activity
Cc1cc(-c2nn(-c3ccccc3F)cc2CN2CCC(O)CC2)c(C)s1	1.72 ± 3.1
Cc1ccccc1NC(=O)C1(C)Cc2ccccc2C(=O)O1 (stereo unspecified)	1.79 ± 2.3
CC[C@H](CO)NCCN[C@H](CC)CO	-4.19 ± 3
CCOC(=O)[C@H]1O[C@@H]1C(=O)N[C@@H](CC(C)C)C(=O)NCCC(C)C	-4.46 ± 4.7
CC(C)NCC(O)COc1ccc(CC(N)=O)cc1 (stereo unspecified)	0.531 ± 1
CC1=NS(=O)(=O)c2cc(Cl)ccc2N1	0.932 ± 0.17
CC(=O)NC1C(OCc2ccccc2)OC(COC(C)=O)C(OC(C)=O)C1OC(C)=O (stereo unspecified)	-0.365 ± 4.4
CN(C)CCC(c1ccc(Br)cc1)c1ccccn1 (stereo unspecified)	-6.17 ± 4.6
c1ccc(-c2ccc(C(c3ccccc3)n3ccnc3)cc2)cc1 (stereo unspecified)	-0.306 ± 6.1
COc1ccc(C2NCCC3(O)CCCCC23)c(OC)c1OC (stereo unspecified)	-0.584 ± 2.8
C[C@]12CCC(=O)C=C1CC[C@@H]1[C@@H]2CC[C@@]2(C)[C@H]1CC[C@]2(O)C(=O)CO	-8.87 ± 3.8
Cc1oc2ccc(OC(=O)c3cccs3)cc2c1C(=O)OC(C)C	6.48 ± 1
CCOc1ccc(NC(=O)N[C@@H](CCSC)C(=O)OC)cc1	3.53 ± 5.2
O=C(CSCc1ccccc1)NCCCN1CCOCC1	-1.22 ± 0.0028
CCC1(c2ccccc2)C(=O)NCNC1=O	2.15 ± 9.9
COc1ccc(C2C(C#N)=C(N)Oc3cc(C)[nH]c(=O)c32)c(OC)c1OC (stereo unspecified)	4.6 ± 0.22
CCC(C(=O)Nc1ccc2c(c1)OCCO2)c1ccccc1 (stereo unspecified)	1.02 ± 2
Cc1ccc(CSCC(=O)N2CCCC2)cc1	10.2 ± 1
c1ccc2c3c(c(CN4CCCCC4)cc2c1)COC3	-1.11 ± 4.5

SMILES	CD40L-induced NF-kB luciferase activity
O=C(OCC1OC2OC3(CCCCC3)OC2C2OC3(CCCCC3)OC12)c1ccccc1 (stereo unspecified)	2.42 ± 3.6
Cc1ccc(OCc2nc(-c3cccnc3)no2)cc1C	34.5 ± 7.5
Nc1cnn(C2OC(CO)C(O)C2O)c(=O)n1 (stereo unspecified)	6.46 ± 4.2
Cc1nc(N)sc1C(=O)NN=Cc1ccco1	2.45 ± 1.3
Clc1ccc2c(c1)CCc1cccnc1C2=C1CCNCC1	-1.74 ± 4.4
COc1ccc(CCN2C(=O)CSC2c2ccc(OC)c(OC)c2)cc1OC (stereo unspecified)	-4.37 ± 4.7
CC12CN3CC(C)(CN(C1)C3c1ccc([N+](=O)[O-])o1)C2 (stereo unspecified)	3.42 ± 1.1
O=C1c2ccccc2N2C(=O)c3ccccc3C2N1Cc1ccco1 (stereo unspecified)	-3.98 ± 15
CCc1c(C(C)=O)oc2ccc3c(C)cc(=O)oc3c12	92.1 ± 14
CC1(C)CC(NCc2ccccc2)CCO1 (stereo unspecified)	0.252 ± 2.9
CCN(CC)C(=O)c1ccc(O)c(OC)c1	0.679 ± 1.2
COc1ccc(-c2nc3c(=O)n(C)c(=O)[nH]c3n2CCc2ccccc2)cc1	1.44 ± 3.9
O=C(/C=C/c1ccc(Cl)cc1)NCCc1ccccc1	31.1 ± 4.1
COc1ccccc1NC(=O)Cn1c(C)cc(=O)c2cccc(OC)c21	3.21 ± 3.6
CC(C)CC(=O)N(Cc1ccc(F)cc1)C1CCS(=O)(=O)C1 (stereo unspecified)	-1.59 ± 0.097
CC(=O)[C@@]1(O)CC[C@H]2[C@@H]3CCC4=CC(=O)CC[C@]4(C)[C@H]3CC[C@@]21C	-4.67 ± 5.7
CC(C)CC(NC(=O)c1cccc(Cl)c1)C(=O)O (stereo unspecified)	-5.1 ± 1.4
CNCCc1ccccn1	2.37 ± 0.81
CC(C)CCNC(=O)[C@H](CC(C)C)NC(=O)[C@H]1O[C@@H]1C(=O)O	-0.145 ± 0.1

SMILES	CD40L-induced NF-kB luciferase activity
CC(=O)OC[C@H]1O[C@@H](Sc2cccc3cccnc23)[C@H](OC(C)=O)[C@@H](OC(C)=O)[C@H]1OC(C)=O	3.41 ± 2.8
CCOc1ccc(N2C(=O)CNC2=S)cc1	-2.26 ± 4.6
CC1(C)C2CCC1(C)C(OCC[N+](C)(C)CC(=O)OC1CCCCC1)C2 (stereo unspecified)	-6.1 ± 2.5
O=C(/C=C/c1ccccc1)NCC1(c2ccccc2)CCOCC1	3.43 ± 3
Cc1ncc(CN2CCC(CO)(CCc3ccccc3)CC2)s1	1.42 ± 1.1
CC(C)CN(C)Cc1c(C(=O)N2CCc3ccccc3C2)nc2ccc(Cl)cn12	-0.418 ± 4.4
COc1ccc(C(=O)N2c3cc4c(cc3C(C)=CC2(C)C)OCO4)cc1	-5.02 ± 1.2
COc1ccc(CCn2c(C)cc3c(c2=O)C(c2ccncc2)C(C#N)=C(N)O3)cc1OC (stereo unspecified)	-4.86 ± 1.2
NC(N)=NC(N)=Nc1ccc2ccccc2c1	6.98 ± 2.5
Cc1cc(C(=O)NC(CC(C)C)C(=O)O)cc(C)c1[N+](=O)[O-] (stereo unspecified)	-4.09 ± 5.2
CC(=O)O[C@]1(C(C)=O)CC[C@H]2[C@@H]3C=C(Cl)C4=CC(=O)CC[C@]4(C)[C@H]3CC[C@@]21C	-9.6 ± 7.8
CCCNC(=O)NS(=O)(=O)c1ccc(Cl)cc1	-4.66 ± 4
Cc1csc(N)n1	0.894 ± 2.2
O=C(O)C1CSC(c2ccco2)N1 (stereo unspecified)	-2.59 ± 6.5
CC(C)(C)N1NC2(CCCCC2)NC1=S	3.77 ± 0.47
COc1ccc(CC(=O)Nc2cccc(C(=O)Nc3ccccc3C(=O)O)c2)cc1OC	-2.42 ± 3.4
CC(=O)C1=C(NC(=O)c2ccc(C(F)(F)F)cc2)C[C@@H]2[C@H]1C2(C)C	-3.93 ± 2.1
CSCC[C@H](NC(=O)NC1CCCC1)C(=O)O	3.41 ± 6
